Laboratory results taken from a collection of fitness landscapes (doi:10.1016/j.celrep.2020.107928).
In all, about 81,000 sequences were measured (“one-hybrid fitness for binding parS DNA”: median about -0.17, highest 2% from about 0.51 on). This is one part of the list.

B1: Caulobacter ParB omega fusion; a variant is named by its letters at X, in order, B8GW30 (parent)
chain: MESVVVGEPGMSEGRRGLGRGLSALLGEVDAAPAQAPGEQLGGSREAPIEILQRNPDQPRRTFREEDLEDLSNSIREKGVLQPILVRPSPDTAGEYQIVAGERAWRAAQRAGLKTVPIMVRELDDLAVLEIGIIENVQRADLNVLEEALSYKVLMEKFERTQENIAQTIGKSXSHVANXMRLLXLPDEVQSYLVSGELTAXHARAIAAAADPVALAKQIIEGGLSVRETEALARKAPNLSAGKSKGGRPPRVKDTDTQALESDLSSVLGLDVSIDHRGSTGTLTITYATLEQLDDLCNRLTRGI

Variants of: B1
Test: one-hybrid fitness for binding parS DNA (scaled: cognate 1, non-cognate 0); higher = stronger binding
Conditions: with parS DNA site
Summary of the method: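 The reporter was HIS3, with the binding site 19 bp from the promoter, in E. coli USO used for bacterial one-hybrid selection of Caulobacter ParB libraries with four specificity codons randomised. Growth was on M9 lacking histidine, with 0.1 mM IPTG and 5 mM 3-AT, for 48 hours at 37°C. Illumina sequencing covered plasmids before and after selection; three replicate libraries were pooled and variants with under 10 reads dropped. A fitness score is the log change in variant-to-wild-type read ratio, rescaled to the cognate and non-cognate references.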

Variant | one-hybrid fitness for binding parS DNA
QKTS | ≤ 0.2
HNIL | ≤ 0.2
LIAY | ≤ 0.2
MPSF | ≤ 0.2
GYIM | ≤ 0.2
PTPV | ≤ 0.2
FQVS | ≤ 0.2
WCPC | ≤ 0.2
RCTR | ≤ 0.2
NCNR | ≤ 0.2
LVEF | ≤ 0.2
KKLV | ≤ 0.2
CTHR | ≤ 0.2
EDVG | ≤ 0.2
KVFG | ≤ 0.2
KCSE | ≤ 0.2
KYLC | ≤ 0.2
ASTG | ≤ 0.2
VHLR | ≤ 0.2
RILS | 1.04
LMEG | ≤ 0.2
MGRH | ≤ 0.2
TRPY | ≤ 0.2
YYPR | ≤ 0.2
WTGS | ≤ 0.2

Variant | one-hybrid fitness for binding parS DNA
EAYN | ≤ 0.2
QRYD | ≤ 0.2
YVYS | ≤ 0.2
MTGA | ≤ 0.2
HHIR | ≤ 0.2
DRNY | ≤ 0.2
WFGC | ≤ 0.2
HISY | ≤ 0.2
PWQK | ≤ 0.2
LTKL | ≤ 0.2
PDHF | ≤ 0.2
ETMS | ≤ 0.2
AFGG | ≤ 0.2
SQAF | ≤ 0.2
DQKV | ≤ 0.2
SCHA | ≤ 0.2
QSYS | ≤ 0.2
ATTM | ≤ 0.2
QCPL | ≤ 0.2
KSTE | ≤ 0.2
SGQR | ≤ 0.2
KPVS | ≤ 0.2
WFHR | ≤ 0.2
RAWW | 0.26
RTNL | ≤ 0.2

Variant | one-hybrid fitness for binding parS DNA
TCNS | ≤ 0.2
PSSL | ≤ 0.2
SSRW | ≤ 0.2
SSTY | ≤ 0.2
IPSL | ≤ 0.2
RAMH | ≤ 0.2
TNPG | ≤ 0.2
NESA | ≤ 0.2
WGHP | ≤ 0.2
ANGM | ≤ 0.2
YSWL | ≤ 0.2
QKKY | ≤ 0.2
KNQG | ≤ 0.2
DEAT | ≤ 0.2
WHAL | ≤ 0.2
SLWW | ≤ 0.2
IDNW | ≤ 0.2
VKAI | 0.241
KFCS | ≤ 0.2
LRKC | ≤ 0.2
TCVF | ≤ 0.2
ARTA | ≤ 0.2
MHVN | ≤ 0.2
RARH | ≤ 0.2
SPPH | ≤ 0.2

Variant | one-hybrid fitness for binding parS DNA
DLSQ | ≤ 0.2
HPKV | ≤ 0.2
SFVR | ≤ 0.2
ICRC | ≤ 0.2
QTDA | ≤ 0.2
DAQG | ≤ 0.2
ENSP | ≤ 0.2
QDKA | ≤ 0.2
WLKN | ≤ 0.2
YALR | ≤ 0.2
CCGR | ≤ 0.2
WALS | ≤ 0.2
QPYR | ≤ 0.2
LQYL | ≤ 0.2
PPPR | ≤ 0.2
FVVV | ≤ 0.2
VYSR | ≤ 0.2
THFM | ≤ 0.2
TEKD | ≤ 0.2
ILDL | ≤ 0.2
TLSA | ≤ 0.2
AKTC | ≤ 0.2
TSIA | ≤ 0.2
PSTP | ≤ 0.2
DDER | ≤ 0.2

Variant | one-hybrid fitness for binding parS DNA
GPPI | ≤ 0.2
QQQW | ≤ 0.2
ENNC | ≤ 0.2
NFTG | ≤ 0.2
TQKG | ≤ 0.2
HGQS | ≤ 0.2
YSHR | ≤ 0.2
YTRL | ≤ 0.2
FSPW | ≤ 0.2
IPTG | ≤ 0.2
GPYM | ≤ 0.2
DHQD | ≤ 0.2
NRFS | ≤ 0.2
TEWY | ≤ 0.2
QGQS | ≤ 0.2
LWYA | ≤ 0.2
IWMT | ≤ 0.2
VLTY | ≤ 0.2
ANDI | ≤ 0.2
LDTC | ≤ 0.2
WLYC | ≤ 0.2
NIHN | ≤ 0.2
YIKG | ≤ 0.2
RLYF | 0.273
GSNW | ≤ 0.2

Variant | one-hybrid fitness for binding parS DNA
AHDW | ≤ 0.2
LEAK | ≤ 0.2
RAME | ≤ 0.2
MECT | ≤ 0.2
DTWS | ≤ 0.2
PYNI | ≤ 0.2
GTQQ | ≤ 0.2
DVWS | ≤ 0.2
AYHG | ≤ 0.2
KNRR | ≤ 0.2
STCV | ≤ 0.2
NMHL | ≤ 0.2
NRAL | ≤ 0.2
IKRA | ≤ 0.2
ETCF | ≤ 0.2
FGVM | ≤ 0.2
DYAG | ≤ 0.2
WRAR | ≤ 0.2
STLF | ≤ 0.2
GCNY | ≤ 0.2
RMNW | 0.318
LKNQ | ≤ 0.2
PFMS | ≤ 0.2
WVMN | ≤ 0.2
RTCY | 0.452

Variant | one-hybrid fitness for binding parS DNA
TNEL | ≤ 0.2
PPHV | ≤ 0.2
QYYH | ≤ 0.2
CEDT | ≤ 0.2
RTCH | 0.289
VKHC | ≤ 0.2
AFRI | ≤ 0.2
MPST | ≤ 0.2
HSCS | ≤ 0.2
PQRL | ≤ 0.2
DNHY | ≤ 0.2
GGME | ≤ 0.2
YRKP | ≤ 0.2
PMDR | ≤ 0.2
SPRC | ≤ 0.2
EHQG | ≤ 0.2
RNMN | 0.299
MRHC | ≤ 0.2
SLMS | ≤ 0.2
QLVA | ≤ 0.2
DSDY | ≤ 0.2
EVAT | ≤ 0.2
LWSC | ≤ 0.2
IRNG | ≤ 0.2
CINT | ≤ 0.2

Variant | one-hybrid fitness for binding parS DNA
EPNV | ≤ 0.2
HELR | ≤ 0.2
DPVM | ≤ 0.2
AAFC | ≤ 0.2
AQSW | ≤ 0.2
SREF | ≤ 0.2
QSNV | ≤ 0.2
GDKR | ≤ 0.2
ALRY | ≤ 0.2
NIHR | ≤ 0.2
IKKR | ≤ 0.2
INLA | ≤ 0.2
APPR | ≤ 0.2
AVVL | ≤ 0.2
PVTS | ≤ 0.2
RCMC | 0.976
RTIF | 0.233
PNCF | ≤ 0.2
CTIM | ≤ 0.2
ACVI | ≤ 0.2
